Over roughly 110,000 compounds, “z-score” has its median near -0.1; the highest 2% begin near 2. This is one part of the list.

For 32 molecules, z-score results are on record in PubChem BioAssay AID488969 (Vanderbilt High Throughput Screening Facility, 2010).

This experiment addresses Metabotropic glutamate receptor 8 (Rattus norvegicus) (UniProt P70579). The experiment is described as follows: rat mGluR8 modulators via GIRK flux, primary screen, cell-based, thallium flux, HTS (AID 488969). The following applies: HEK293 rat mGluR8, GIRK (G protein-gated inwardly rectifying potassium channel) thallium flux, FluoZin2; at 10 µM; stronger effect = higher value; submaximal glutamate (EC20) added with thallium.
Chain of UniProt P70579 (P70579 whole entry, looked up): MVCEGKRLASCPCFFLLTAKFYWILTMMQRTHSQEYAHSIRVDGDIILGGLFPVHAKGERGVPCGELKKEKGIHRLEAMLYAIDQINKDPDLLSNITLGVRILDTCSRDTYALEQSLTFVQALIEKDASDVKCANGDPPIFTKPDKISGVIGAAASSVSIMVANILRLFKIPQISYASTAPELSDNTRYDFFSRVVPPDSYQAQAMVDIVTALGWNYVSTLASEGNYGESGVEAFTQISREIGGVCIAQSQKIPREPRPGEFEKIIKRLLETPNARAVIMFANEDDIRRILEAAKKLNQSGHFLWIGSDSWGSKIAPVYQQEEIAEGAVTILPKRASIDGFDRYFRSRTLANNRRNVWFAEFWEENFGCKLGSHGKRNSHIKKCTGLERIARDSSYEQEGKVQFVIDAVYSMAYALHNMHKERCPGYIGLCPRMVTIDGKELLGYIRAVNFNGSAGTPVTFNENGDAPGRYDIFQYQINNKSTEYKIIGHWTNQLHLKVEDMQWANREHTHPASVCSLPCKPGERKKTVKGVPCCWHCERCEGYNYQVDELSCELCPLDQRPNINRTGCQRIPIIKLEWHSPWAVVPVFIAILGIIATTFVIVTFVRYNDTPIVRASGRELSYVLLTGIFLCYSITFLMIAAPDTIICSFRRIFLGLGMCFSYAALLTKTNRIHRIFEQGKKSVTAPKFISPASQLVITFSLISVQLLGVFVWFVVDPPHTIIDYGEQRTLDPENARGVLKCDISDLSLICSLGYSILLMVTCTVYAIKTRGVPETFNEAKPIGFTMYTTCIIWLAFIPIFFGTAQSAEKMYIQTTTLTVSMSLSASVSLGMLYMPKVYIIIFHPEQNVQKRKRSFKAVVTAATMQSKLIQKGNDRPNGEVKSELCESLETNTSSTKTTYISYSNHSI
The molecule `CCOC(=O)CSc1ncc(-c2ccc([N+](=O)[O-])cc2)[nH]1` displayed a z-score of -0.303.

As for `O=C(CN1C(=O)CSC1=O)Nc1ccccc1N1CCOCC1`, the z-score was -0.141.

In turn, `CC(=O)c1c(C)[nH]c(C(=O)Nc2ccc3c(c2)OCCO3)c1C` yielded a z-score of -0.0446.

The molecule `CCN(Cc1cc2ccccc2[nH]c1=O)S(=O)(=O)c1ccccc1` displayed a z-score of -0.028.

On to `Cc1ccc(NC(=O)CN2C(=O)C3CCCCN3C(=O)c3ccccc32)cc1` (configuration not stated), for which the z-score is 0.0289.

`CCOC(=O)c1nnc(-c2ccc(C)cc2)nc1Sc1ccccc1Cl` registered a z-score of 0.00195.

The molecule `CCOc1ccc(-n2nnc3c(=O)n(C/C=C/c4ccccc4)cnc32)cc1` displayed a z-score of 0.793.

Regarding `COc1ccc(C(C)(C)C)cc1S(=O)(=O)N1CCC(C(N)=O)CC1`, the z-score is 0.402.

As for `O=C1C=C(O)CC(c2cccs2)C1` (configuration not stated), the z-score was -0.0555.

`COc1ccc(-c2csc(Nc3ncccc3C)n2)cc1OC` yielded a z-score of 0.0742.

Consider `Cc1c(C(=O)N/N=C/c2ccc(O)c(Br)c2)sc(N)c1C#N`, for which the z-score is -0.187.

`Cc1ccc(C#N)c(SCc2nnc(-c3ccc(Cl)cc3)o2)n1` showed a z-score of -0.201.

`Clc1nc(-c2ccccc2)cc(-c2ccccc2)n1` had a z-score of 0.17.

`CCN(CC)CCCNC(=O)N[C@@H](Cc1ccccc1)C(=O)O`: the z-score is -0.181.

For `CCCCCCCC(=O)NNC(=O)CCC(=O)O`, the z-score turned out to be 0.0901.

`CCOC(=O)c1ccc(CSc2nnc(N)s2)cc1` showed a z-score of -0.194.

Turning to `CCCCSc1nc(O)c(C2OC(=O)c3c2ccc(OC)c3OC)c(=O)n1C` (configuration not stated), the z-score is -0.59.

Molecule `COc1cccc(NC(=O)NC2(C(F)(F)F)Oc3ccccc3O2)c1` came in with a z-score of 0.97.

The molecule `COc1ccc(C(C(=O)NCc2ccccc2)N(Cc2cccs2)C(=O)c2cnccn2)cc1` (configuration not stated) had a z-score of -0.354.

Turning to `CC(/C=N/NC(=O)CSc1nc(C)cc(C)n1)=C\c1ccccc1`, the z-score was -0.395.

`O=C(NCc1cccnc1)/C(=C/c1ccco1)NC(=O)c1ccccc1` displayed a z-score of -0.224.

For `CC1=NOC(=O)/C1=C/c1ccc(-c2ccc(Cl)cc2)o1`, the z-score is -0.101.

Molecule `CN(C)c1ccc(CN(C)C2CCCCC2)cc1` came in with a z-score of -0.424.

On to `CC1CCCC(C)N1C(=O)c1ccccc1Nc1ccc(SC(F)F)cc1` (configuration not stated), for which the z-score was -0.0764.

In turn, `COc1cccc(-c2nnc(SCc3ccc(C#N)cc3)n2Cc2ccco2)c1` had a z-score of 0.343.

Turning to `O=C(Cn1c(C(=O)NCCCN2CCOCC2)cc2sccc21)c1ccccc1`, the z-score was -0.13.

In turn, `CCCCOCP(=O)(CC)COCCCC` registered a z-score of 0.0954.

`COc1ccccc1OCc1ccc(C(=O)Nc2ccncc2)o1` showed a z-score of 0.198.

`CCCn1c(N)c(C(c2ccc(OC)cc2)N2CCN(c3ccccc3)CC2)c(=O)[nH]c1=O` (configuration not stated) yielded a z-score of 0.035.

Turning to `COc1ccc(NC(=S)NNC(=O)c2ccccc2OC(F)F)cc1`, the z-score was determined as 0.204.

`COc1cc(/C=C2\C(=O)N(CCC#N)N=C2C)ccc1OCC(=O)Nc1ccccc1` registered a z-score of -1.

As to `O=C(c1ccc2c(c1)OCCO2)N(c1ccccn1)C1CCCCC1`, the z-score was found to be 0.0462.
